The data set can be described thus: xn = mol fraction of the nth substance listed. Conditions: 101 kPa.

We go through 2 compounds from a compilation of properties of binary mixtures (doi:10.1016/j.molliq.2016.07.039).

Some of these densities may be calculated back from excess volumes.

In general, mass density refers to the mass of a sample divided by its volume. Regarding `CC[N+](CC)(CC)CC.[Cl-]` + CC(=O)CCC(=O)O, the mass density is 1097.4 kg/m3 (293.15 K, x1 = 0.25); 1093.9 kg/m3 (298.15 K, x1 = 0.25); 1086.6 kg/m3 (308.15 K, x1 = 0.25); 1079.7 kg/m3 (318.15 K, x1 = 0.25); 1072.5 kg/m3 (328.15 K, x1 = 0.25); 1065.7 kg/m3 (338.15 K, x1 = 0.25). For the same compound, under “343.15 K, x1 = 0.25”, the mass density stood at 1062.3 kg/m3.

Regarding `CC(=O)CCC(=O)O` + CCCC[N+](CCCC)(CCCC)CCCC.[Cl-], the mass density is recorded as 1034.5 kg/m3 (293.15 K, x1 = 0.75); 1031 kg/m3 (298.15 K, x1 = 0.75); 1023.8 kg/m3 (308.15 K, x1 = 0.75); 1016.7 kg/m3 (318.15 K, x1 = 0.75); 1009.5 kg/m3 (328.15 K, x1 = 0.75); 1002.5 kg/m3 (338.15 K, x1 = 0.75).
